One may read the % Inhibition as the change of the read-out against control, counted positive when it falls.

In all, about 150,000 compounds went through this assay and about 540 (0.36%) showed an effect of 50% or more. The list shows a part of the results.

The experiment concerns Plasmodium falciparum. Briefly: Primary screen in NF54 nanoGlo assay, in single point, at 2uM, 72h; a lower Z score goes with more inhibition. The class given is functional, Erythrocyte. The note with it: timepoint 72 hour.
In the case of `O=C(Cc1ccon1)N1CCN(c2ccccn2)CC1`, the “% Inhibition” value is given as -6% and the Z score is 0.67.

As to `Cc1ccccc1-c1cc(C(=O)N(C2CCCCC2)C2CCCCC2)c2ccccc2n1`, the “% Inhibition” value is given as -1% and the Z score came out at 0.21.

Take `CCCN(CCC)S(=O)(=O)N(C)Cc1ncccn1`: the “% Inhibition” value is -6% and the Z score came to 1.13.

Regarding `O=C(CCc1cccc(Cl)c1)N1CCC(n2cnc3ncccc3c2=O)CC1`, the “% Inhibition” value is listed as -11% and the Z score was determined as 1.4.

`CCc1nc(CN(Cc2cn3c(n2)CCCC3)S(C)(=O)=O)cs1`: the “% Inhibition” value is reported as -32% and the Z score amounted to 3.78.

Turning to `C[C@H]1C[C@@H](C(=O)Nc2ccccc2OCc2cccc(Cl)c2)CCN1`, the “% Inhibition” value came to 2% and the Z score is given as -0.23.

For the compound `CC(=O)c1ccc(OCCNC(=O)c2cn(-c3ccc(F)cc3)nn2)cc1`, the “% Inhibition” value was -21% and the Z score is on record as 1.86.

With `O=C(c1csc2c1CCCC2)N1CCC(CO)CC1`, the “% Inhibition” value is given as -7% and the Z score is reported as 0.56.

Consider `Cc1cccc([C@H](CNC(=O)CCc2ccno2)N(C)C)c1`, for which the “% Inhibition” value was -12% and the Z score is 1.82.

Take `Cn1cc([C@@H]2CCCCN2S(=O)(=O)c2ccc3c(c2)CCO3)cn1`: the “% Inhibition” value is recorded as -19% and the Z score was determined as 2.48.

`C=C[C@H](C)NC(=O)N1CC(=O)N(CC)C1`: the “% Inhibition” value is -3% and the Z score stood at 0.43.

Consider `Cn1nccc1NC(=O)Cn1ccc(-c2ccc(F)c(F)c2)n1`, for which the “% Inhibition” value was -7% and the Z score turned out to be 1.06.

For the compound `Fc1ccc(-c2nc(Nc3cccc(Cl)c3)nc3c2COc2ccccc2-3)cc1`, the “% Inhibition” value is -19% and the Z score is 2.78.

`Cc1nonc1N1CCN(C(=O)[C@@H](c2ccc3c(c2)OCO3)N(C)C)CC1`: the “% Inhibition” value is -10% and the Z score was 1.38.

As to `Cc1c[nH]c([C@H](C)NC(=O)c2conc2-c2ccccc2)n1`, the “% Inhibition” value is reported as 4% and the Z score is -0.83.

Turning to `CC(=O)NCCN(C(=O)c1oc(Br)cc1C)c1ccc(Br)cn1`, the “% Inhibition” value is -1% and the Z score came to 0.22.

Turning to `CNC(=NCC1(c2ccc(F)cc2)CC1)NC1CC1`, the “% Inhibition” value is on record as 2% and the Z score is -0.25.

For `CC1CCC2(CC1)OC[C@@H](C(=O)NCCN1CCOCC1)N2C(=O)c1ccccc1F` (some centres undefined), the “% Inhibition” value is recorded as -4% and the Z score came to 0.48.

In the case of `Cc1nc(C(C)C)c(C(=O)Nc2ccc(N3CCCS3(=O)=O)cc2)s1`, the “% Inhibition” value is given as -6% and the Z score was determined as 0.6.

Consider `CN(C[C@H]1COCCO1)C1CCN(c2ccc(NC(=O)CCCCc3ccccc3)cc2)CC1`, for which the “% Inhibition” value is 8% and the Z score is -0.98.

With `O=C(CCc1nc(-c2ccsc2)no1)Nc1cccc(Cl)c1F`, the “% Inhibition” value is recorded as -8% and the Z score is given as 1.19.

`Cc1cccc(NS(=O)(=O)c2ccc3c(c2)OCCCO3)n1`: the “% Inhibition” value stood at 3% and the Z score is listed as -0.44.

Turning to `CCCc1nnc(N(C)CCC(C)(C)O)s1`, the “% Inhibition” value was -18% and the Z score came out at 1.85.

With `O=C(c1cnn2c1CCCC2)N1CCCS(=O)(=O)C[C@H]1C1CC1`, the “% Inhibition” value is 2% and the Z score is -0.38.

Turning to `Cc1nnc(CCNC(=O)c2ccc3nc(-c4ccc(F)cc4)cn3c2)[nH]1`, the “% Inhibition” value is -5% and the Z score amounted to 0.79.

Regarding `O=c1ccc(-c2ccccc2)nn1CN(Cc1cccc(F)c1)C1CC1`, the “% Inhibition” value is reported as -1% and the Z score is 0.16.

Take `CC(C)n1cc(CN(Cc2ccncc2)Cc2ccco2)cn1`: the “% Inhibition” value is given as -1% and the Z score worked out at 0.17.

As to `Cc1ncn(C[C@H](O)COc2ccc(F)cc2)c(=O)c1C`, the “% Inhibition” value is listed as -17% and the Z score is 2.39.

For `Cc1cccc(N2CCN(C(=O)[C@H]3CCc4cncn4C3)CC2)c1C`, the “% Inhibition” value is listed as -5% and the Z score is recorded as 1.13.

Regarding `O=C(Cc1ccc(F)cc1)N1CC(Cc2nncn2CC2CC2)C1`, the “% Inhibition” value is listed as -1% and the Z score stood at 0.1.

On to `Cn1cc(NC(=O)NC(C)(C)CC(=O)OC(C)(C)C)cn1`, for which the “% Inhibition” value is listed as 11% and the Z score is listed as -1.48.

Take `CC(OC(=O)Cc1ccccc1CC#N)C1CCCCN1C(=O)OC(C)(C)C` (centres undefined): the “% Inhibition” value is -7% and the Z score turned out to be 0.86.

Consider `CCOC(=O)C1(C[C@H]2CCCCO2)CCN(S(=O)(=O)c2ccc(F)cc2Cl)CC1`, for which the “% Inhibition” value is given as -9% and the Z score came out at 1.13.

For the compound `CC(C)c1nccc(NC[C@@H](O)CO)n1`, the “% Inhibition” value is listed as -10% and the Z score was 1.6.

In the case of `CCn1ccc2ccn(CCNC(=O)c3cccc(-n4cnnn4)c3)c(=O)c21`, the “% Inhibition” value is reported as -4% and the Z score was 0.84.

On to `O=C(NCc1cc(-c2cccs2)on1)c1ncc(-c2ccccc2)o1`, for which the “% Inhibition” value is 10% and the Z score is reported as -1.42.

As to `Cc1cccc(OCC(=O)N2CCO[C@@H](COc3ccc(F)cc3)C2)c1`, the “% Inhibition” value is -10% and the Z score came to 1.11.

As to `O=C1CCCN1CC[C@H]1CCCCN1C(=O)c1cnc(C2CC2)nc1`, the “% Inhibition” value is reported as -7% and the Z score came out at 0.89.

For `Cn1cc(-c2nc3cnccc3[nH]2)c(-c2ccc(Oc3ccccc3)cc2)n1`, the “% Inhibition” value was -2% and the Z score worked out at 0.38.

Turning to `CC1CN(c2nccnc2C#N)CCN1C1C=CCCC1` (centres undefined), the “% Inhibition” value was 2% and the Z score is recorded as -0.22.

As to `Cc1nc(N2CC[C@H](C3CCN(C)CC3)C2)sc1C`, the “% Inhibition” value is reported as -6% and the Z score turned out to be 1.13.

Consider `Cn1ncc(C(=O)Nc2ccccc2)c1C(=O)Nc1ccccc1`, for which the “% Inhibition” value was found to be 32% and the Z score is -3.62.

The record behind these values is ChEMBL document CHEMBL4888484, “Replenishing the malaria drug discovery pipeline: Screening and hit evaluation of the MMV Hit Generation Library 1 (HGL1) against asexual blood stage Plasmodium falciparum ,using a nano luciferase reporter read-out” (2022).
